The structures appear in SMILES notation. The list shows a part of the results.

In one assay the test system is HSkMC. As to the kind of experiment: cytotoxicity call (relative viability < 0.9). The conditions noted are these: 10 µM.
The next assay deals with HepG2. As to the kind of experiment: cytotoxicity call (relative viability < 0.9). The following applies: 10 µM.
Another assay deals with S. aureus RN4220. Briefly: growth inhibition call (relative growth <= 0.2). The conditions noted are these: 50 µM.

For the compound `COc1ccc(S(=O)(=O)N(C)C[C@H]2Oc3c(NC(=O)c4cnccn4)cccc3C(=O)N([C@H](C)CO)C[C@H]2C)cc1`, the cytotoxicity call in the assay with HSkMC and with HepG2 was “inactive” throughout. In the assay on S. aureus RN4220, the growth inhibition call was “inactive”.
As to `COCn1c(=O)[nH]c2ccccc21`, the cytotoxicity call with HSkMC and with HepG2 was “inactive” in each case. Moreover, the growth inhibition call in the assay with S. aureus RN4220 is “inactive”.
On to `C[C@H]1CN([C@@H](C)CO)C(=O)c2cc(NC(=O)Nc3ccc(F)cc3)ccc2O[C@H]1CN(C)S(C)(=O)=O`, for which the cytotoxicity call in the assay on HSkMC and with HepG2 was “inactive” throughout. Besides, in the assay with S. aureus RN4220, the growth inhibition call is “inactive”.
`O=C(Nc1nccs1)[C@H]1[C@H](CO)[C@H]2Cn3c(cccc3=O)[C@H]2N1C(=O)C1CC1`: the cytotoxicity call with HSkMC and in the assay with HepG2 was “inactive” throughout. Also, in the assay with S. aureus RN4220, the growth inhibition call is “inactive”.
Regarding `C[C@@H]1CN([C@@H](C)CO)C(=O)c2cccc(NC(=O)c3ccc(-c4nccs4)cc3)c2O[C@@H]1CN(C)C(=O)Nc1ccc(C(F)(F)F)cc1`, the cytotoxicity call in the assay on HSkMC was “inactive”. In the assay on HepG2, the cytotoxicity call is “active”. The growth inhibition call in the assay with S. aureus RN4220 was “inactive”.
Turning to `COCC#Cc1ccc2c(c1)O[C@@H](CN(C)Cc1ccccc1F)[C@@H](C)CN([C@H](C)CO)S2(=O)=O`, the cytotoxicity call in the assay with HSkMC and with HepG2 was “inactive” throughout. Besides, the growth inhibition call in the assay on S. aureus RN4220 is “inactive”.
As for `C[C@@H]1CCCCO[C@H](CN(C)Cc2ccc(C(=O)O)cc2)[C@@H](C)CN([C@@H](C)CO)C(=O)c2cc(NC(=O)Nc3ccccc3)ccc2O1`, the cytotoxicity call in the assay on HSkMC and in the assay with HepG2 was “inactive” in each case. The growth inhibition call in the assay on S. aureus RN4220 was “inactive”.
For `C[C@H]1CN([C@@H](C)CO)C(=O)c2cc(NC(=O)c3ccncc3)ccc2O[C@@H]1CN(C)S(=O)(=O)c1ccc(F)cc1`, the cytotoxicity call in the assay on HSkMC and with HepG2 was “inactive” throughout. Further, the growth inhibition call with S. aureus RN4220 is “inactive”.
Consider `Cc1noc(C)c1S(=O)(=O)N(C)C[C@@H]1Oc2ccc(NC(=O)C3CC3)cc2CC(=O)N([C@H](C)CO)C[C@H]1C`, for which the cytotoxicity call in the assay on HSkMC (human skeletal muscle cells) and with HepG2 was “inactive” throughout. The growth inhibition call in the assay on S. aureus RN4220 is “inactive”.

For the origin of these results see the antibiotic and cytotoxicity screens of Wong et al. (2023).
